According to PubChem BioAssay AID1346428 (National Center for Advancing Translational Sciences (NCATS), 2018):
Where “and” joins values, the source holds several entries; their conditions need not be identical. Equal values may be shown once. Screen size: about 48,000 compounds; about 1,200 (2.5%) were called active. Not shown: some 2% with an inconclusive outcome.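 The calls were made as follows: active = activation of at least 60% and not above a set upper limit (about 1 call in 100 departs from these limits); inconclusive = activation of 40% to 60%, or above that upper limit; inactive = activation under 40%.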 The list shows a part of the results.

These compounds were tested against Probable G-protein coupled receptor 32 (Homo sapiens) (UniProt O75388) (assay: qHTS for Agonists of Human Resolvin D1 Receptor DRV1). Settings: CHO-K1 GPR32 beta-arrestin PathHunter luminescence, 90 min; at 76.9 µM; active compounds read high; zero percent set by DMSO-only wells.
Sequence of UniProt O75388 (O75388 whole entry, looked up): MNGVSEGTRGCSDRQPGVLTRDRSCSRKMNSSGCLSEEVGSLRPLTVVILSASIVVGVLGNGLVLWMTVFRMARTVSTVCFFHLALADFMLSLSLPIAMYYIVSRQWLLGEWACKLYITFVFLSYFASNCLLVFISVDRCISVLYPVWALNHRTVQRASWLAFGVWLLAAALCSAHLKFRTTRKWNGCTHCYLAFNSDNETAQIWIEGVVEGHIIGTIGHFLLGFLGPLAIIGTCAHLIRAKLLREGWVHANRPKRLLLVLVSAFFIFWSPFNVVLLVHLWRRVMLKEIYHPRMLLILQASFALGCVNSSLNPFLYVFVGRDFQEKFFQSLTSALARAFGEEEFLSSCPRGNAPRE
How it was run: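 Using DMSO wells as EC0, agonist-induced signal was taken as chemiluminescence from beta-Gal reconstituted upon beta-arrestin recruitment to GPR32 in CHO-K1 cells after 90 min compound treatment.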
For `Cc1ccc(NC(=O)N2CCN(c3nnc(C)c4c(C)n(-c5ccccc5)nc34)CC2)c(Cl)c1`, the activation was inactive: 4.39%.
With `CCOc1ccc2nc(N3CCCC(C(=O)NCc4ccc(OC)cc4)C3)sc2c1` (stereo not drawn) the activation was inactive: 4.09%.
In the case of `CCOc1ccc(-c2cccc(NS(=O)(=O)c3ccc(Cl)s3)c2)nn1`, the activation is reported as inactive: -1.93%.
With `CCNc1nc(Oc2ccc(OCC(=O)OC)nn2)nc(N2CCOCC2)n1` the activation was inactive: 9.33%.
In the case of `CCc1ccccc1NC(=O)CCCN1C(=O)COc2ccc(C)cc21`, the activation is reported as inactive: -27.4%.
`FC(F)(F)c1ccc(C2=Nc3ccccc3NC(c3cccs3)=N2)cc1` was tested, and the activation was inactive: -18.7%.
With `COc1ccc(F)cc1NC(=O)C1CCN(c2nc(-c3ccc(OC)c(OC)c3)no2)CC1` the activation was inactive: -6.23%.
With `COc1cccc(C(=O)NC(c2ccc(Cl)cc2)c2cc(Cl)c3cccnc3c2O)c1` (stereo not drawn) the activation was inactive: -69.3%.
In the case of `Cc1ccc(-n2nc(C)c3c(C)cc(=O)n(CC(=O)NCc4ccc(OC(C)C)cc4)c32)cc1`, the activation is reported as inactive: 2.48%.
With `O=C(COc1ccc(F)cc1)Nc1cccc(OCc2cc(=O)n3ccccc3n2)c1` the activation was inactive: -9.71%.
In the case of `COc1ccc(Nc2ncc(C(=O)Nc3cc(C)ccc3OC)c3ccccc23)cc1`, the activation is reported as inactive: 8.22%.
With `Cc1ccc(Cl)cc1NC(=O)Cn1c(=O)oc2cc(S(=O)(=O)N3CCCCCC3)ccc21` the activation was inactive: 3%.
In the case of `Cn1c(C(=O)NCc2ccc(Cl)cc2)cc2c(=O)n(C)c3ccccc3c21`, the activation is reported as inactive: -7.52%.
`Cc1ccc2c(c1)c1c(c(=O)n(-c3ccccc3C)c(=O)n1Cc1ccccc1F)n2C` was tested, and the activation was inactive: -5.27%.
`COc1ccc(NC(=O)CCc2c(C)nc3c(-c4ccccc4)c(C)nn3c2C)cc1Cl` was tested, and the activation was inactive: 13.6%.
In the case of `Cc1ccc(OCC(=O)Nc2c(Cl)ccc3nsnc23)cc1C`, the activation is reported as active: 84.5%.
In the case of `Fc1ccc(-n2ncc3c(Nc4ccc(Oc5ccccc5)cc4)ncnc32)cc1`, the activation is reported as inactive: 48.9%.
With `Cc1cccc2c1-c1sc(C(=O)NCCCN3CCN(c4cccc(Cl)c4)CC3)cc1CO2` the activation was inactive: 9.8%.
With `COc1ccc(-c2noc(C(C)NC(=O)c3ccco3)n2)cc1` (stereo not drawn) the activation was inactive: 8.48%.
`Cc1ccc(NC(=O)c2ccc(=O)n(CC(=O)Nc3cc(C)cc(C)c3)n2)cc1` was tested, and the activation was inactive: -11.1%.
With `COc1cc(C(c2c(C)[nH][nH]c2=O)c2c(C)[nH][nH]c2=O)ccc1OC(=O)c1ccccc1F` the activation was inactive: -66.3%.
With `CC(=O)Nc1cccc(-c2nnc(SCC(=O)c3cc([N+](=O)[O-])ccc3Br)o2)c1` the activation was inactive: -11.4%.
`CC(=O)c1cccc(Nc2c3c(nc4nc(-c5cccs5)nn24)CCCC3)c1` was tested, and the activation was inactive: -35.5%.
In the case of `CCCN1CCN(CCCNC(=O)c2cnn(-c3ccc(C)cc3)c2-n2cccc2)CC1`, the activation is reported as inactive: -5.98%.
For `CC(=O)Nc1ccc(NC(=O)CSc2nnc3c4cc(Br)ccc4n(C)c3n2)cc1`, the activation was inactive: 3.69%.
With `COC(=O)c1ccc2oc(=O)c(S(=O)(=O)c3ccc(C)cc3)cc2c1` the activation was inactive: -4.89%.
For `CCCC(=O)Nc1cccc(-c2nc3cc(C)c(C)cc3o2)c1C`, the activation was inactive: 20.1%.
With `Cc1ccc(CNC(=O)C2CCN(c3nc4ccc(C)cc4[nH]3)CC2)cc1` the activation was inactive: -23%.
`CC(C)c1ccc(Nc2cc(C(=O)NCCc3ccccc3)c3ccccc3n2)cc1` was tested, and the activation was active: 84.9%.
`O=C(Cn1ncc2c3ccccc3n(Cc3ccc(Cl)cc3)c2c1=O)NCCCc1ccccc1` was tested, and the activation was inactive: -0.0509%.
With `COc1ccc(Nc2oc(-c3ccc(COc4ccc(OC)cc4)o3)nc2C#N)cc1` the activation was active: 71%.
With `Cc1ccc(C)c(S(=O)(=O)c2nnn3c2nc(N2CCCC2)c2sccc23)c1` the activation was inactive: -22.6%.
In the case of `CCCCN(CC)c1ncnc2c1sc1nc(N3CCOCC3)c3c(c12)CCCC3`, the activation is reported as inactive: 1.81%.
For `CCc1ccccc1N1CC(c2nc3ccccc3n2CC(C)C)CC1=O` (stereo not drawn), the activation was inactive: -9.11%.
With `CCC(C)NC(=O)C1CCN(C(=O)c2cc3sccc3n2Cc2ccc(Cl)cc2)CC1` (stereo not drawn) the activation was inactive: 7.14%.
With `CC(C)(C)C1CCc2nc(NC(=O)COc3ccc(F)cc3)sc2C1` (stereo not drawn) the activation was inactive: 18.6%.
With `CCC(=O)Nc1ccccc1-c1nc2ccccc2n(C(CC)C(=O)Nc2cccc(C(C)=O)c2)c1=O` (stereo not drawn) the activation was inactive: -40.2%.
With `CCCCN(CC)CCCn1cnc2c([nH]c3ccc(Cl)cc32)c1=O` the activation was inactive: -3.75%.
In the case of `CC(C)(C)c1ccc(OCCSc2nc(-c3cccs3)nc3cc(=O)[nH]n23)cc1`, the activation is reported as active: 67.9%.
For `Cc1oc(-c2ccc(C(=O)Nc3ccc(F)cc3F)cc2)nc1COc1ccccc1`, the activation was inactive: -7.89%.
In the case of `CC(=O)Nc1ccc(-n2cc3c(c2-c2ccc(C)cc2)c(=O)n(C)c(=O)n3C)cc1`, the activation is reported as inactive: -8.37%.
In the case of `COc1cccc(-c2cc(C(=O)NCc3ccccc3)[nH]n2)c1`, the activation is reported as inactive: -9.02%.
`CN(C)C(=O)c1ccc2c(c1)N(CC(=O)NCc1ccc(F)cc1)C(=O)C1CCCCN21` (stereo not drawn) was tested, and the activation was inactive: -13.9%.
`Cn1c(SCC(=O)Nc2ccc(F)cc2)nc2c([nH]c3ccccc32)c1=O` was tested, and the activation was inactive: -15.8%.
With `CCCC(=O)Oc1c(Sc2ccc(Cl)cc2)c(C)nn1-c1ccccc1` the activation was inactive: 8.29%.
`CCOc1nc(NC(=O)NS(=O)(=O)Oc2ccc(Cl)cc2)nc(-c2ccccc2)n1` was tested, and the activation was inactive: 23.5%.
`Cn1cc(C(=O)O)c(=O)c2cc(S(=O)(=O)N3CCCCC3)ccc21` was tested, and the activation was inactive: -16.3%.
`Cc1ccc(CN2C(=O)c3ccccc3S(=O)(=O)c3ccc(C(=O)OCC4CCCO4)cc32)cc1` (stereo not drawn) was tested, and the activation was inactive: -27.7%.
For `Cc1ccc(NC(=O)C(Cc2ccccc2)NS(=O)(=O)c2ccc3c(c2)c(=O)n(C)c(=O)n3C)cc1` (stereo not drawn), the activation was inactive: -1.28%.
In the case of `CCN(C(=O)c1cc(S(=O)(=O)N2CCOCC2)cn1C)c1ccc(OC)cc1`, the activation is reported as inactive: -15.1%.
`CCOc1ccc(C(C)C)cc1S(=O)(=O)Nc1cccc(-c2ccc(N3CCOCC3)nn2)c1` was tested, and the activation was inactive: -1.03%.
For `CC(C)(C)c1ccc(OCC(=O)N(Cc2ccco2)Cc2ccccc2F)cc1`, the activation was inactive: -15.7%.
With `Cc1cccn2c(=O)c3cc(C(=O)NCCc4ccc(S(N)(=O)=O)cc4)n(C)c3nc12` the activation was inactive: -0.435%.
`COc1ccc(OC)c(C2C(C(N)=O)=C(C)Nc3nc(-c4cccc(Cl)c4)nn32)c1` (stereo not drawn) was tested, and the activation was inactive: -24.9%.
For `Cc1cc(C(C#N)c2ccc(Cl)cc2)c(Cl)cc1NC(=O)c1cc(I)cc(I)c1O` (stereo not drawn), the activation was inactive: 12.1%.
In the case of `Cc1ccc2c(c1)cc1c(=O)n(CC(=O)NCc3ccco3)nc(C)n12`, the activation is reported as inactive: -2.01%.
`COc1ccc(CCNC(=O)CCn2c(=O)c3ccccc3n(CC(=O)Nc3cccc(C)c3)c2=O)cc1OC` was tested, and the activation was inactive: 9.55%.
For `CC(=O)c1ccc(NC(=O)Cn2c(-n3nc(C)cc3C)nc(C)cc2=O)cc1`, the activation was inactive: -7.1%.
In the case of `COc1cc(OC)cc(-c2nnc(SCC(=O)N3CCC(C)CC3)o2)c1`, the activation is reported as inactive: 3.58%.
For `COc1ccc2cc(-c3cn4c(n3)sc3cc(F)ccc34)c(=O)oc2c1`, the activation was inactive: -6.23%.
For `Cc1cccc(OCC(=O)N(Cc2cccc(Cl)c2)Cc2ccco2)c1C`, the activation was inactive: -2.88%.
In the case of `CC(C)S(=O)(=O)c1oc(-c2ccc(F)cc2)nc1S(=O)(=O)c1ccc(F)cc1`, the activation is reported as inactive: -0.656%.
With `Cc1ccc(S(=O)(=O)c2nc(-c3ccccc3)oc2N2CCCCCC2)cc1` the activation was inactive: -20.9%.
`COc1ccc(/C=C/c2onc(C)c2S(=O)(=O)N2CCC(C(=O)N3CCC(C)CC3)CC2)cc1` was tested, and the activation was inactive: -18.8%.
`COc1cccc(C(=O)NCC(c2ccc(N(C)C)cc2)N2CCOCC2)c1OC` (stereo not drawn) was tested, and the activation was inactive: -3.85%.
`Cc1ccccc1CSc1nc(-c2ccccc2)nc2c1Cc1c(CO)cnc(C)c1O2` was tested, and the activation was inactive: 8.96%.
For `CCOC(=O)c1c(S(=O)(=O)N2CCCC(C(=O)Nc3cc(C)ccc3OC)C2)c(C)n(C)c1C` (stereo not drawn), the activation was inactive: 34.2%.
`CC(C)CCNC(=O)N1CCN(S(=O)(=O)c2ccc3c(ccn3C)c2)CC1` was tested, and the activation was inactive: -7.58%.
In the case of `CC1CCN(S(=O)(=O)c2ccc3c(c2)N(CC(=O)N2CCN(c4ccc(Cl)cc4)CC2)C(=O)CO3)CC1`, the activation is reported as inactive: 18.3%.
`CCCCNC(=O)CCn1c(=O)c2ccccc2n(Cc2cc(C)ccc2C)c1=O` was tested, and the activation was inactive: -4.28%.
For `COc1cccc(C2=NN(C(C)=O)C(c3cn(-c4ccccc4)nc3-c3cccs3)C2)c1` (stereo not drawn), the activation was inactive: 7.31%.
For `CCOc1ccc(CCNC(=O)CCc2cn(Cc3ccc(C)cc3)c3ccccc23)cc1`, the activation was inactive: -33%.
In the case of `CC(C[N+](C)(C)C)OC(N)=O` (stereo not drawn), the activation is reported as inactive: -1.06% and inactive: 4.27%.
For `O=C(c1ccc(CSc2nc3ccncc3n2Cc2ccccc2F)cc1)N1CCCCCC1`, the activation was inactive: -2.7%.
`CCCC(=O)Nc1nnc(SCc2cc(=O)c3cc(C)ccc3[nH]2)s1` was tested, and the activation was inactive: 44.9%.
In the case of `Cc1ccc(C)c(N2CCN(C(=O)c3cc(S(=O)(=O)N4CCCCC4)cn3C)CC2)c1`, the activation is reported as inactive: -3.46%.
For `COc1ccc2[nH]cc(CCNC(=O)Nc3ccc(F)cc3)c2c1`, the activation was inactive: 41.9%.
With `CC(C)NS(=O)(=O)c1ccc(OCC(=O)N2CCN(c3ccccc3F)CC2)cc1` the activation was inactive: 11.3%.
For `Cc1cc(C)c2c(CC(=O)Nc3nnc(CC(C)C)s3)coc2c1`, the activation was inactive: 10.4%.
For `COc1ccc(CCCc2nnc(SCC(=O)Nc3ccc(C)c(C)c3)o2)cc1`, the activation was inactive: 37.7%.
In the case of `CCc1ccc(S(=O)(=O)c2cn(C)c3cc(N4CCN(CC)CC4)c(F)cc3c2=O)cc1`, the activation is reported as inactive: 4.97%.
In the case of `CSc1cccc(NC(=O)c2ccc3c(c2)c(C)c(C)n3Cc2ccc(F)cc2)c1`, the activation is reported as inactive: -16.9%.
In the case of `COc1ccccc1-c1c(C)nn2c(C(F)(F)F)cc(-c3ccccc3)nc12`, the activation is reported as inactive: -28.6%.
